Hit rate of the full screen: of about 310,000 compounds, about 14,000 (4.5%) showed an effect of 50% or more. The effect is printed as a negative number. The list shows a part of the results.
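Also: peak tail current of the secondary pulse compared with the same well before compound.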

The target of this assay is human ether-à-go-go-related gene (hERG) potassium channel (human, UniProt Q12809). Kind of assay: primary screen, population patch clamp on CHO cells stably expressing hERG.
Sequence of human ether-à-go-go-related gene (hERG) potassium channel (Q12809 whole entry, looked up): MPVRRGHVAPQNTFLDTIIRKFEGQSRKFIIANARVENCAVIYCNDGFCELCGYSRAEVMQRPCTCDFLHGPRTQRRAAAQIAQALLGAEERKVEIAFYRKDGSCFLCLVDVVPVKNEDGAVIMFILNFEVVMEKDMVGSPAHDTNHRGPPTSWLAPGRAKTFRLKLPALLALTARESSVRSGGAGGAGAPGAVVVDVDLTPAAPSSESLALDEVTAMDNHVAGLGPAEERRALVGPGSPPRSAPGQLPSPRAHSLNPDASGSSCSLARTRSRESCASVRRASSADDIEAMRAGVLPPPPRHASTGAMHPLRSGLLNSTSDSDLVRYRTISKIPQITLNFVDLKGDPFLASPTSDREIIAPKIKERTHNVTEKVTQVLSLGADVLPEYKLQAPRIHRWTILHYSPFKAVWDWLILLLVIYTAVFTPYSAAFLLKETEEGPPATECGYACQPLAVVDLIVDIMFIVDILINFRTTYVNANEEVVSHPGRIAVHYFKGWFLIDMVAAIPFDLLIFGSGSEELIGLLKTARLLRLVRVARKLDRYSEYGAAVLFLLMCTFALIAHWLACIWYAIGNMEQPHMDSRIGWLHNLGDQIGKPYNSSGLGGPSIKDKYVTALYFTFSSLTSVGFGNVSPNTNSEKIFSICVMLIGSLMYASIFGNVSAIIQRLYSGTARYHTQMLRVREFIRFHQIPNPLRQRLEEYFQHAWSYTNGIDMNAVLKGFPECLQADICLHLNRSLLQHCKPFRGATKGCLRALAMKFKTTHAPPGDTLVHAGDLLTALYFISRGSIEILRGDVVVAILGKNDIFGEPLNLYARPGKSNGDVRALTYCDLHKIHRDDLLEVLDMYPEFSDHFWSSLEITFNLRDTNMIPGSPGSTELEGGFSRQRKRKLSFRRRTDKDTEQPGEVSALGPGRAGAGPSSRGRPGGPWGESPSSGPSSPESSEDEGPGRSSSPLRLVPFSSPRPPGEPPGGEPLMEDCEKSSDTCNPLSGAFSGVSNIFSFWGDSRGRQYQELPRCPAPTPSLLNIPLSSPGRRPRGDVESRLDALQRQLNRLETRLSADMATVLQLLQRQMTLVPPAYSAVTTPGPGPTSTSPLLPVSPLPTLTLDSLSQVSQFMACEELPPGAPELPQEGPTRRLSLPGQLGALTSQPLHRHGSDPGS
With `Cc1cc(C)n2nc(-c3ccc(F)cc3)nc2n1`, the “hERG current change (%, negative = inhibition) at 10uM” value is recorded as -2.95%.
For `CNC(=S)N/N=C/c1cn(CCOc2ccc(OC)cc2)c2ccccc12`, the “hERG current change (%, negative = inhibition) at 10uM” value is given as -3.06%.
The value for `O=C(O)CCC(=O)N1N=C(c2ccco2)CC1c1cccs1` (stereo not shown) was 24.5%; that for `Cc1ccc(OCC(=O)N2N=C(c3ccncc3)CC2(O)C(F)(F)F)cc1C` (stereo not shown) was 14.4%; that for `Nc1c2nc(-c3ccccc3Cl)[nH]c(=O)c2nc(=O)n1-c1ccccc1` was -26.7%.
For `CCN(CC)C(=O)c1ccc(NC(=O)CNC(C)c2cccc3ccccc23)cc1` (stereo not shown), the “hERG current change (%, negative = inhibition) at 10uM” value is on record as 8.74%.
The figure for `COc1ccccc1N1CCN(CC(=O)c2c[nH]c3ccccc23)CC1` is -44.7%.
The value for `COc1ccc(CCN(C)C2CCCN(C(=O)CCC(F)(F)F)C2)cc1OC` (stereo not shown) was -52%.
The value for `CN(C)c1ccc(NC(=O)C2C3C=CC(C3)C2C(=O)O)cc1` (stereo not shown) was 7.65%.
Turning to `O=C(CCN1c2ccccc2Sc2ccccc21)Nc1ccccc1`, the “hERG current change (%, negative = inhibition) at 10uM” value was -3.4%.
On to `CC(=O)Nc1ccc(NC(C)=O)s1`, for which the “hERG current change (%, negative = inhibition) at 10uM” value was determined as 0.0366%.
Regarding `Cc1occc1C(=O)NNC(=S)NC(=O)COc1ccc(Cl)cc1Cl`, the “hERG current change (%, negative = inhibition) at 10uM” value turned out to be 28.8%.
The value for `O=C(COc1ccccc1[N+](=O)[O-])OCCCOC(=O)COc1ccccc1[N+](=O)[O-]` was 12.4%.
In the case of `COc1ccc(NC(=O)c2[nH]c(C)c(C(C)=O)c2C)cc1S(=O)(=O)N1CCOCC1`, the “hERG current change (%, negative = inhibition) at 10uM” value was 1.8%.
The value for `Cc1ccc(N2CC(C(=O)Nc3cccnc3)CC2=O)cc1` (stereo not shown) was -9.42%; that for `Cc1ccc(N(C(=O)c2csnn2)C(C(=O)NCc2ccccc2)c2cccnc2)cc1` (stereo not shown) was 5.25%.
The value for `COc1ccccc1Nc1nc2ccccc2n1C` was -3.73%; that for `O=C(NCc1ccccc1)/C(=C\c1ccc(O)cc1)NC(=O)c1ccco1` was -20.7%.
The value for `CNC(=S)N(Cc1ccccc1)Cc1cccnc1` was 8.19%.
Turning to `CS(=O)(=O)N(CC(=O)N1CCOCC1)c1cccc([N+](=O)[O-])c1`, the “hERG current change (%, negative = inhibition) at 10uM” value is recorded as 6.28%.
The figure for `FC(F)(F)c1cc(C(F)(F)F)c2ccc(N3CCN(c4ccc(Cl)cc4)CC3)nc2n1` is -8.81%; for `CNc1ccccc1C(=O)OCC(C)=O` it is 9.88%.
Take `O=c1c2ccccc2cnn1Cc1n[nH]c(=S)n1-c1ccc(F)cc1`: the “hERG current change (%, negative = inhibition) at 10uM” value turned out to be 12.2%.
As to `COC(=O)C1=C(c2ccc(F)cc2OCc2ccccc2)C[C@@H]2CC[C@H]1N2C(=O)NCc1ccc(C)cc1`, the “hERG current change (%, negative = inhibition) at 10uM” value came out at 12.1%.
With `CCCCn1c(SCc2nc(N)nc(N3CCCCC3)n2)nc2c1c(=O)n(C)c(=O)n2C`, the “hERG current change (%, negative = inhibition) at 10uM” value is given as -3.14%.
The value for `Cl.Nc1ccc(N(CCO)CCO)cc1` was 36.3%; that for `COc1cc(C2Nc3ccccc3C(=O)N2NS(C)(=O)=O)ccc1O` (stereo not shown) was 2.44%.
The value for `Cc1[nH+]csc1CCOC(=O)c1ccccc1.[Cl-]` was 17.5%; that for `C/C(=N\O)c1cccc(Br)c1` was 9.23%; that for `Cc1ccnc(NS(=O)(=O)c2ccc(NC(=O)C3CCCCC3)cc2)n1` was 11.4%.
Regarding `Cc1oc2ccc(O)cc2c1C(=O)c1ccc(Cl)cc1`, the “hERG current change (%, negative = inhibition) at 10uM” value turned out to be 9.07%.
The value for `CCOc1ccc(NC(=O)N2CCc3ccccc3C2)cc1` was 2.65%.
The figure for `O=C1CCCN1CN(C(=O)c1ccccc1)c1ccc(F)cc1` is 4.13%.
The value for `CC1=CC(=NOC(=O)c2cccc([N+](=O)[O-])c2)C=C(C)C1=O` was 12%; that for `CCN(C(=O)C1CCCN1S(=O)(=O)c1cccc2nsnc12)c1ccccc1` (stereo not shown) was -38.3%; that for `Cc1cccc(S(=O)(=O)Nc2ccc(-c3ccc4nncn4n3)cc2)c1` was -123%.
On to `CCNc1nc(NCC)nc(OCC(=O)O)n1`, for which the “hERG current change (%, negative = inhibition) at 10uM” value was found to be 7.6%.
The value for `Cc1cc(C)c(C(N)=O)c(Cl)n1` was 19.9%; that for `COc1ccc(NC(=O)NNC(=O)CCc2ccc(O)c(O)c2)cc1OC` was 7.53%; that for `CC(C)(C)NC(=O)CSC(=Nc1ccc(F)cc1)NC#N` was -72.3%.
On to `COc1ccc(/C(N)=N/OC(=O)CSc2ccc(C)cc2)cc1OC`, for which the “hERG current change (%, negative = inhibition) at 10uM” value was 1.89%.
For the molecule `CC(C)(C)OC(=O)CNC(=O)c1[nH]cnc1C(=O)NC1CCN(C(=O)OC(C)(C)C)CC1`, the “hERG current change (%, negative = inhibition) at 10uM” value is -2.67%.
The figure for `COc1ccc(-c2c(C)nc(N)nc2-c2ccc(OC)cc2O)cc1` is 11%.
The value for `Fc1ccc(C2N(c3ccccc3)C(=S)N3CCCN23)cc1` (stereo not shown) was 4.2%; that for `CCC(=O)c1ccc(OCC(=O)Nc2ccccc2N2CCOCC2)cc1` was -7.08%; that for `CCc1nnc(NCn2nc(C)cc2C)s1` was 4.04%.
The value for `CCc1ccccc1NC(=O)CCc1nc(-c2ccc(C)cc2)no1` was 4.43%.
With `CCn1c2ccccc2c2nnc(SCC(=O)N3CC(C)OC(C)C3)nc21` (stereo not shown), the “hERG current change (%, negative = inhibition) at 10uM” value is given as -9.08%.
For the molecule `CSCC[C@H](NC(=O)OC(C)(C)C)C(=O)N/N=C/c1cc2ccc(C)cc2nc1Cl`, the “hERG current change (%, negative = inhibition) at 10uM” value is recorded as -7.13%.
The value for `O=C(Nn1cnnc1)c1cccc(S(=O)(=O)N2CCOCC2)c1` was 22.5%.
The figure for `COc1ccc(NC(=O)C/C(C)=N/NC(=O)c2ccco2)c([N+](=O)[O-])c1` is -33.9%.
The figure for `COc1cc2c(cc1NC(=O)COC(=O)[C@@H](NS(=O)(=O)c1cccc(Cl)c1)C(C)C)oc1ccccc12` is 18.8%; for `CCOc1ccc(CN2CCNC(=O)C2CC(=O)NCCN2CCOC2=O)cc1` (stereo not shown) it is 21.1%; for `O=C(COc1ccccc1[N+](=O)[O-])NCc1cccnc1` it is -18%.
For the molecule `O=C(N/N=C/c1ccco1)C12CC3CC(CC(C3)C1)C2`, the “hERG current change (%, negative = inhibition) at 10uM” value was 10.3%.
In the case of `Cc1cc(C(=O)OCC(=O)NC2CCCCC2)c(C)o1`, the “hERG current change (%, negative = inhibition) at 10uM” value came to 9.12%.
The figure for `CCOc1ccccc1C1C(C#N)=C(N)Oc2cc(C)n(C)c(=O)c21` (stereo not shown) is -2.81%.
The value for `COc1ccc(-n2c(C(C)(C)C)csc2=Nc2c(C)n(C)n(-c3ccccc3)c2=O)cc1` was 3.4%; that for `Cc1ccc(CNC(=O)C2CC(c3cccc(F)c3)=NO2)cc1` (stereo not shown) was -0.806%.
The figure for `O=C(Nc1ccccc1)c1nnsc1S(=O)(=O)c1ccc(Cl)cc1` is -1.13%.
For `COc1ccc(C2CC(c3cccc(C)c3)n3nc(N)nc3N2)cc1` (stereo not shown), the “hERG current change (%, negative = inhibition) at 10uM” value was -26.1%.
The value for `CC(C)N1CC23C=CC(O2)C(C(=O)OCc2ccccc2)C3C1=O` (stereo not shown) was 3.29%; that for `O=[N+]([O-])c1sccc1CS(=O)(=O)c1ccccc1` was 0.965%; that for `C[C@@H](C(=O)Nc1ccc2ccccc2c1)[C@H]1C[C@]1(C)[C@H](NC(=O)c1cnccn1)c1ccccc1` was -4.43%.
As for `COc1ccc(S(=O)(=O)N(C)CC(=O)Nc2ccc3c(c2)OCO3)cc1`, the “hERG current change (%, negative = inhibition) at 10uM” value was -6.06%.
The value for `O=C1[C@H]2[C@H](C=CC[C@H]2C(=O)N2CCOCC2)CCN1Cc1ccccc1` was 3.9%; that for `C=CCNC(=S)NNC(=O)c1cccc2ccccc12` was 8.08%.
The value for `CCCCN(C)CCCNC(=O)c1cc(Nc2ccc(OC)c(OC)c2)nc2ccccc12` was 2.09%; that for `CN(C)S(=O)(=O)c1ccc(C(=O)OCC(=O)Nc2cccnc2Cl)cc1` was 1.64%; that for `CN(C)S(=O)(=O)c1cccc(NC(=O)COC(=O)c2cc(-c3cccc(Br)c3)nc3ccccc23)c1` was 0.00528%.
The figure for `CN(C)c1ccc(C(CC(=O)O)C(=O)O)cc1` (stereo not shown) is 14.4%.
With `Cc1c(OCC(=O)NCCCN2CCOCC2)ccc2c(-c3ccccc3)cc(=O)oc12`, the “hERG current change (%, negative = inhibition) at 10uM” value is -26.9%.
On to `O=C(O)CCc1[nH]c2ccccc2c1Sc1ccccc1`, for which the “hERG current change (%, negative = inhibition) at 10uM” value was found to be 16.5%.
The figure for `CCCCNC(=O)C1Cc2cc(S(=O)(=O)N3CCCC3)ccc2N1C(C)=O` (stereo not shown) is 11.9%; for `CCCc1cc(=O)c2ccc(OC/C(C)=N/O)cc2o1` it is -17.5%.
The figure for `Cc1nn(C2CCS(=O)(=O)C2)c(Cl)c1/C=C/C(=O)OCC(=O)c1c[nH]c2ccccc12` (stereo not shown) is -4.84%.
`CCOc1ccccc1N=NC1C(=O)N(C(N)=S)N=C1C` (stereo not shown): the “hERG current change (%, negative = inhibition) at 10uM” value was determined as 7.06%.
Turning to `Cc1cccc(N=Nc2c(C)nn(-c3ccccc3)c2N)c1C`, the “hERG current change (%, negative = inhibition) at 10uM” value is listed as -7.14%.
For the molecule `Cc1cccc(-c2noc(CN(C)C(=O)c3ccc4c(c3)OCO4)n2)c1`, the “hERG current change (%, negative = inhibition) at 10uM” value was -24.1%.
As to `CC(C)CCN1CCN(Cc2cccn2-c2nccs2)CC1CCO` (stereo not shown), the “hERG current change (%, negative = inhibition) at 10uM” value is on record as -52.1%.
Consider `Cc1cccc(NC(=O)COc2ccc(/C=N\n3cnnc3)cc2)c1`, for which the “hERG current change (%, negative = inhibition) at 10uM” value is listed as -37.2%.
The figure for `Cc1cccc(NC(=O)CN(C)S(=O)(=O)c2cccc3nsnc23)c1C` is -8.69%; for `CS(=O)(=O)N1CCCC(c2nc(-c3ccc(S(=O)(=O)NCc4ccccc4)cc3)no2)C1` (stereo not shown) it is -1.19%; for `COc1ccc(NC(=O)[C@@H]2CC=C[C@@H]3CCN(Cc4ccccc4)C(=O)[C@@H]32)cc1` it is -8.12%.
The figure for `CCOC(=O)c1sc(NC(=S)NC(=O)c2ccccc2Cl)c(C(=O)OCC)c1C` is 5.04%.
The figure for `COc1cc(CNC(C)(C)CO)ccc1OCC(=O)NC(C)(C)C` is 0.607%; for `COc1cc(CN2CCN(c3cccc(C)c3C)CC2)cc([N+](=O)[O-])c1O` it is 23.5%.
Regarding `Clc1cccc(-c2nc(-c3ccc(-c4nn[nH]n4)cc3)no2)c1`, the “hERG current change (%, negative = inhibition) at 10uM” value is given as 10.5%.
